A collection of fitness landscapes (doi:10.1016/j.celrep.2020.107928)
Whole data set: some 81,000 sequences, median “one-hybrid fitness for binding parS DNA” near -0.17, cut for the highest 2% near 0.51. The list shows a part of the results.

B1: Caulobacter ParB omega fusion; a variant is named by its letters at X, in order, B8GW30 (parent)
chain: MESVVVGEPGMSEGRRGLGRGLSALLGEVDAAPAQAPGEQLGGSREAPIEILQRNPDQPRRTFREEDLEDLSNSIREKGVLQPILVRPSPDTAGEYQIVAGERAWRAAQRAGLKTVPIMVRELDDLAVLEIGIIENVQRADLNVLEEALSYKVLMEKFERTQENIAQTIGKSXSHVANXMRLLXLPDEVQSYLVSGELTAXHARAIAAAADPVALAKQIIEGGLSVRETEALARKAPNLSAGKSKGGRPPRVKDTDTQALESDLSSVLGLDVSIDHRGSTGTLTITYATLEQLDDLCNRLTRGI

Variants of: B1
Assay: one-hybrid fitness for binding parS DNA (scaled: cognate 1, non-cognate 0); higher = stronger binding
Details: with parS DNA site
Procedure, shortened: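 The reporter was HIS3, with the binding site 19 bp from the promoter, in E. coli USO used for bacterial one-hybrid selection of Caulobacter ParB libraries with four specificity codons randomised. Growth was on M9 lacking histidine, with 0.1 mM IPTG and 5 mM 3-AT, for 48 hours at 37°C. Illumina sequencing covered plasmids before and after selection; three replicate libraries were pooled and variants with under 10 reads dropped. A fitness score is the log change in variant-to-wild-type read ratio, rescaled to the cognate and non-cognate references.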

Variant | one-hybrid fitness for binding parS DNA
TQRG | ≤ 0.2
AHDR | ≤ 0.2
PWYG | ≤ 0.2
GKAS | ≤ 0.2
YFKR | ≤ 0.2
AHWT | ≤ 0.2
RFVA | 0.44
ILWI | ≤ 0.2
CKES | ≤ 0.2
EFNC | ≤ 0.2
SRAS | ≤ 0.2
TCQI | ≤ 0.2
LLCS | ≤ 0.2
RMPQ | ≤ 0.2
GVQR | ≤ 0.2
SNTH | ≤ 0.2
NCNG | ≤ 0.2
HLPL | ≤ 0.2
GRHF | ≤ 0.2
APKR | ≤ 0.2
VAPG | ≤ 0.2
NAII | ≤ 0.2
ILYT | ≤ 0.2
LREK | ≤ 0.2
DKNK | ≤ 0.2

Variant | one-hybrid fitness for binding parS DNA
NELY | ≤ 0.2
RLQT | 0.946
TRAA | ≤ 0.2
FECS | ≤ 0.2
PMYS | ≤ 0.2
CITR | ≤ 0.2
VVIL | ≤ 0.2
VRSY | ≤ 0.2
VKSL | ≤ 0.2
TCMN | ≤ 0.2
PSPF | ≤ 0.2
KVPL | ≤ 0.2
AVHL | ≤ 0.2
KCRN | ≤ 0.2
KLGK | ≤ 0.2
RLNH | 0.252
MACR | ≤ 0.2
WSYS | ≤ 0.2
MLKK | ≤ 0.2
PEPY | ≤ 0.2
GLEA | ≤ 0.2
MDKE | ≤ 0.2
QYPH | ≤ 0.2
DDGR | ≤ 0.2
LSSK | ≤ 0.2

Variant | one-hybrid fitness for binding parS DNA
FNTG | ≤ 0.2
GLAS | ≤ 0.2
LLQT | ≤ 0.2
QALK | ≤ 0.2
HFHS | ≤ 0.2
SCGH | ≤ 0.2
DRAM | ≤ 0.2
QQPH | ≤ 0.2
NGGC | ≤ 0.2
YGWT | ≤ 0.2
SSWW | ≤ 0.2
FCSG | ≤ 0.2
VLLH | ≤ 0.2
PQIM | ≤ 0.2
CNSM | ≤ 0.2
MPVF | ≤ 0.2
NSRI | ≤ 0.2
VKLF | ≤ 0.2
INEV | ≤ 0.2
FMWV | ≤ 0.2
DIHL | ≤ 0.2
QQQE | ≤ 0.2
MEFT | ≤ 0.2
QVFC | ≤ 0.2
TQSY | ≤ 0.2

Variant | one-hybrid fitness for binding parS DNA
CWVA | ≤ 0.2
FLHT | ≤ 0.2
LPTQ | ≤ 0.2
VGVI | ≤ 0.2
KMWS | ≤ 0.2
VIAC | ≤ 0.2
MLWT | ≤ 0.2
LAQF | ≤ 0.2
RQSE | ≤ 0.2
TWDG | ≤ 0.2
PSHG | ≤ 0.2
LVAP | ≤ 0.2
EEGV | ≤ 0.2
VYKM | ≤ 0.2
QVVA | ≤ 0.2
SMGR | ≤ 0.2
QCIM | ≤ 0.2
QTSM | ≤ 0.2
QHLI | ≤ 0.2
SPQF | ≤ 0.2
CCAG | ≤ 0.2
CNMK | ≤ 0.2
SHHS | ≤ 0.2
PQVR | ≤ 0.2
RPYC | ≤ 0.2

Variant | one-hybrid fitness for binding parS DNA
SKRY | ≤ 0.2
NMYV | ≤ 0.2
SKVR | ≤ 0.2
FWTT | ≤ 0.2
HCNT | ≤ 0.2
LRIL | ≤ 0.2
PPQL | ≤ 0.2
RVQG | 0.999
EASF | ≤ 0.2
PPQG | ≤ 0.2
SMIK | ≤ 0.2
AEVW | ≤ 0.2
VSQC | ≤ 0.2
QNFF | ≤ 0.2
TKAY | ≤ 0.2
LYKS | ≤ 0.2
QFTV | ≤ 0.2
NRKW | ≤ 0.2
HTAK | ≤ 0.2
RFMP | ≤ 0.2
LEES | ≤ 0.2
ANTR | ≤ 0.2
VKWR | ≤ 0.2
QNAC | ≤ 0.2
DCQS | ≤ 0.2

Variant | one-hybrid fitness for binding parS DNA
YKDS | ≤ 0.2
WYSG | ≤ 0.2
CSHT | ≤ 0.2
MDVS | ≤ 0.2
DLSI | ≤ 0.2
KHRS | ≤ 0.2
TPYC | ≤ 0.2
YWGT | ≤ 0.2
ILER | ≤ 0.2
LHHS | ≤ 0.2
FLCG | ≤ 0.2
ATME | ≤ 0.2
SIGA | ≤ 0.2
VVHT | ≤ 0.2
HWVS | ≤ 0.2
LTWY | ≤ 0.2
SSQP | ≤ 0.2
TMKC | ≤ 0.2
QRDM | ≤ 0.2
CVIR | ≤ 0.2
VSFC | ≤ 0.2
MSND | ≤ 0.2
VQGS | ≤ 0.2
VAMV | ≤ 0.2
LVQT | ≤ 0.2

Variant | one-hybrid fitness for binding parS DNA
KWRE | ≤ 0.2
WCIG | ≤ 0.2
RYPL | ≤ 0.2
SASL | ≤ 0.2
NNWC | ≤ 0.2
RVFS | 1.03
IYKT | ≤ 0.2
FACK | 0.273
LPNW | ≤ 0.2
HVPK | ≤ 0.2
CMYS | ≤ 0.2
SSCH | ≤ 0.2
PPND | ≤ 0.2
GYAL | ≤ 0.2
PLRW | ≤ 0.2
MPQR | ≤ 0.2
RMTD | 0.207
SVLK | ≤ 0.2
HSMF | ≤ 0.2
KRLI | ≤ 0.2
WHDG | ≤ 0.2
ESNP | ≤ 0.2
TQMG | ≤ 0.2
PHTE | ≤ 0.2
YLPI | ≤ 0.2

Variant | one-hybrid fitness for binding parS DNA
PLMV | ≤ 0.2
MKLS | ≤ 0.2
AGRC | ≤ 0.2
LWYF | ≤ 0.2
RAKD | ≤ 0.2
QFHC | ≤ 0.2
VNHL | ≤ 0.2
VPQN | ≤ 0.2
AMKL | ≤ 0.2
YLSA | ≤ 0.2
VKIY | ≤ 0.2
VTNI | ≤ 0.2
KDSF | ≤ 0.2
HCVG | ≤ 0.2
ARYG | ≤ 0.2
DNWE | ≤ 0.2
KLSF | ≤ 0.2
QTEP | ≤ 0.2
MDVR | ≤ 0.2
KTNK | ≤ 0.2
